Several values for one entry are separate records, joined by “and”; a condition that tells them apart may be missing. Equal values may be shown once. The list shows a part of the results. Further columns of the screen follow, without active or inactive calls. For some assays here: Compounds called inactive in the main read-out are mostly missing here. The note in brackets gives the kind of curve behind each potency; many fits are weak.
Experiments:
[1] = qHTS Assay for Lipid Storage Modulators (AID 1519); conditions: Drosophila S3 cells, BODIPY lipid droplet/cell ratio, laser cytometry, cells loaded with oleic acid
Method in brief: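 Cells seeded at 5,000 per well were treated with compounds over a concentration series and loaded with oleic acid (400 uM, as added). Lipid droplet fluorescence (488 nm excitation, 500-530 nm channel) was read by laser-scanning cytometry and normalized to 20 uM Triacsin C.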

[2] = qHTS for identification of novel therapeutic agents for treatment of microphthalmiaassociated transcription factor (MiT) renal cell carcinoma (RCC) (AID 1963991); conditions: CellTiter-Glo, 48 h; for z-score: stronger effect = lower value
Method in brief: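 Three TFE3-fusion RCC lines (UOK109, UOK124, UOK145), 500 cells/well in complete medium, were treated with MIPE 4.0 compounds for 48 hours at 37 C. Viability was by CellTiter-Glo luminescence, normalized to DMSO (100%) and empty wells (0%); curves fitted over 11 concentrations.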

[3] = qHTS Assay for Modulators of Human Peripheral Myelin Protein 22 (PMP22) Expression/Activity (AID 1967); conditions: Cell-based PMP22 reporter, dual-color luciferase ratio
Method in brief: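 Engineered MSC80 cells, Pmp22-promoter green and EF-alpha red luciferase reporters; 24h compound treatment at 37 °C. Concentration-response fits on green, red and ratio signals, each overlap-corrected, with %Activity normalized to untreated wells.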

[4] = qHTS drug screen for cell cycle checkpoint inhibitors in PARPi-resistant BRCA-mutant ovarian cancer cell lines. (AID 1963452); conditions: PEO1/OlaR viability, CellTiter-Glo luminescence, 96 h
Method in brief: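 PEO1, PEO4 and PEO1/OlaR ovarian cancer cells, 600 per well, exposed 96 h at 37C to a dilution series. Viability read by CellTiter-Glo luminescence, normalized to DMSO and empty wells; activity summarized as Z-AUC.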

[5] = S16 Schwann cell PMP22 intronic element beta-lactamase assay (AID 624044); conditions: S16 rat Schwann cells, PMP22 element beta-lactamase FRET, 24 h; measured here: 460 nm blue channel; also: nearly all actives have a fitted effect of over 15% in size
Method in brief: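 Beta-lactamase reporter under a PMP22 intronic regulatory element in stable S16 rat Schwann cells; 24 h compound exposure. 460 nm blue signal normalized between DMSO (0%) and potassium clavulanate, with 535 nm FRET tracking viability; curves classed by r2 and response.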

[6] = qHTS Validation Assay to Find Inhibitors of Chronic Active B-Cell Receptor Signaling (AID 485345); conditions: ABC-DLBCL cells, chronic BCR signaling reporter; measured here: CBG/CBR ratio read-out
Method in brief: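 TMD8 ABC-DLBCL cells stably carrying doxycycline-inducible IkappaBalpha–green luciferase fusion plus unfused red luciferase; compounds 46 uM to 3 nM, 4 h at 37C with doxycycline. Corrected green/red luminescence ratio normalized to 10 uM MG-132 and basal cell wells; curves fitted.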

[7] = measured here: cell count channel max response
[8] = measured here: cell number channel AC50
[9] = measured here: lipid (BODIPY) channel AC50
[10] = measured here: lipid channel max response
[11] = TFE3-RCC UOK109 viability, measured here: UOK109 Z-AUC
[12] = TFE3-RCC viability, measured here: UOK124 Z-AUC
[13] = TFE3-RCC viability, measured here: UOK145 Z-AUC
[14] = TFE3-RCC viability, measured here: UOK145 cell viability
[15] = measured here: red reporter channel AC50, EF-alpha promoter control reporter in MSC80 mouse Schwann cells
[16] = measured here: PEO1 parental viability
[17] = TFE3-RCC viability, measured here: UOK124 cell viability
Tags tell the direction and shape of the fitted curve.

For `COc1cc2c(cc1OC)-c1c(OC)c(OC)cc3ccnc(c13)C2=O`, the max response [1, 7] was 74.5%, the AC50 [1, 8] was 0.316 µM [rising, full curve, poor fit] and the AC50 [1, 9] was 0.112 µM [rising, full curve, poor fit]. The max response [1, 10] was 66.4%.

For `CC(=O)NCCNc1nc(-c2ccc3c(c2)OCO3)nc2ccccc12`, the max response [1, 7] was 36.9%, the AC50 [1, 8] was 0.00631 µM [rising, full curve, poor fit] and the AC50 [1, 9] was 0.02 µM [rising, full curve, poor fit]. The max response [1, 10] was 43.6%.

In the case of `COc1ccc(CNc2ncnc3ccc(-c4ccccc4C#N)cc23)c(OC)c1`, the max response [1, 7] is reported as 32.2%, the AC50 [1, 8] is reported as 3.55 µM [rising, full curve, poor fit] and the AC50 [1, 9] is reported as 3.55 µM [rising, full curve, poor fit]. It also gave a max response [1, 10] of 39.5%.

For `CC1C(=O)OC2C(O)C34C5CC(C(C)(C)C)C36C(OC(=O)C6O)OC4(C(=O)O5)C12O` (stereo not given), the max response [1, 7] was -9.92%, the AC50 [1, 8] was 0.0708 µM [falling, full curve, poor fit] and the AC50 [1, 9] was 0.0794 µM [falling, full curve, poor fit]. It also gave a max response [1, 10] of -7.3%, a z-score [2, 11] of -0.738 and a z-score [2, 12] of 0.628. For the same molecule, the z-score [2, 13] was -1.46 and the AC50 [2, 14] was 2.64 µM [falling, partial curve, poor fit].

With `CC(C)(C)NCC(O)c1ccc(O)c(CO)c1` (stereo not given) the max response [1, 7] was 30.1% and 36%, the AC50 [1, 8] was 25.1 µM [falling, single point] and the AC50 [1, 9] was 25.1 µM [falling, single point]. For the same molecule, the max response [1, 10] was 30.5% and 36%, the AC50 [3, 15] was 84.9 µM [falling, single point] and the AC50 [4, 16] was 24.5 µM [rising, single point].

For `Cc1cc2cc3c(C)cc(=O)oc3c(C)c2o1`, the max response [1, 7] was 36.1%, the AC50 [1, 8] was 1.41 µM [rising, full curve] and the AC50 [1, 9] was 7.08 µM [rising, partial curve]. For the same molecule, the max response [1, 10] was 69.6%, the z-score [2, 11] was -0.0339 and the z-score [2, 12] was 0.447. For the same molecule, the z-score [2, 13] was -1.54 and the AC50 [2, 14] was 0.0148 µM [rising, full curve].

In the case of `COC(=O)C1C2CC3c4[nH]c5cc(OC)ccc5c4CCN3CC2CC(OC(=O)c2cc(OC)c(OC)c(OC)c2)C1OC` (stereo not given), the max response [1, 7] is reported as 116%, the AC50 [1, 8] is reported as 12.6 µM [rising, full curve] and the AC50 [1, 9] is reported as 14.1 µM [rising, partial curve]. The max response [1, 10] was 143%, the AC50 ([4]; measured here: PEO4 viability) was 15.5 µM [falling, partial curve, poor fit] and the z-score [2, 11] was 0.644. For the same molecule, the z-score [2, 12] was 0.384, the AC50 [2, 17] was 29.6 µM [falling, single point] and the z-score [2, 13] was 0.501. The AC50 [2, 14] was 29.6 µM [falling, single point].

With `COc1c(C)c2c(c(O)c1C/C=C(\C)CCC(=O)O)C(=O)OC2` the max response [1, 7] was 45.1% and 22.3% and 44.3%, the AC50 [1, 8] was 35.5 µM [rising, single point] and 6.31 µM [rising, full curve, poor fit] and the AC50 [1, 9] was 31.6 µM [rising, single point] and 20 µM [rising, partial curve, poor fit]. For the same molecule, the max response [1, 10] was 54.5% and 34.3% and 58.8%, the AC50 [4, 16] was 1.74 µM [falling, full curve] and the AC50 ([4]; measured here: PEO4 viability) was 1.74 µM [falling, full curve].

For `COC(=O)Nc1nc2ccc(C(=O)c3ccccc3)cc2[nH]1`, the max response [1, 7] was 7.94%, the AC50 [1, 8] was 3.16 µM [rising, partial curve] and the AC50 [1, 9] was 3.16 µM [rising, partial curve, poor fit]. For the same molecule, the max response [1, 10] was 20.9%, the AC50 [5] was 9.51 µM [falling, partial curve, poor fit] and the AC50 [4, 16] was 0.11 µM [falling, full curve]. For the same molecule, the AC50 ([4]; measured here: PEO4 viability) was 0.138 µM [falling, full curve], the z-score [2, 11] was -3.21 and the z-score [2, 12] was -0.543. The AC50 [2, 17] was 1.18 µM [falling, full curve], the z-score [2, 13] was -0.0205 and the AC50 [2, 14] was 5.26 µM [falling, partial curve].

With `OCc1ccc(-c2nn(Cc3ccccc3)c3ccccc23)o1` the max response [1, 7] was -41.7%, the AC50 [1, 8] was 0.251 µM [falling, full curve, poor fit] and the AC50 [1, 9] was 0.251 µM [falling, full curve, poor fit]. For the same molecule, the max response [1, 10] was -63.1%, the AC50 ([3]; measured here: green reporter channel AC50, mouse Pmp22 promoter in mouse Schwann cells) was 37.9 µM [falling, full curve] and the AC50 [3, 15] was 37.9 µM [falling, full curve, poor fit]. For the same molecule, the AC50 [6] was 13 µM [falling, partial curve], the AC50 ([4]; measured here: PEO4 viability) was 24.5 µM [falling, single point] and the z-score [2, 11] was -0.517. It also gave a z-score [2, 12] of 0.527 and a z-score [2, 13] of 0.704.

For `CCN(c1ccccc1)c1cc(NC)[n+](C)c(C)n1`, the max response [1, 7] was 55.4%, the AC50 [1, 8] was 12.6 µM [rising, partial curve, poor fit] and the AC50 [1, 9] was 14.1 µM [rising, partial curve, poor fit]. The max response [1, 10] was 65.4%, the z-score [2, 11] was -0.999 and the z-score [2, 12] was 0.254. For the same molecule, the z-score [2, 13] was 0.533.
